Source: the supplement of paper PMC8728848
Some of the results follow.

Assays:
Assay in all cases: glycan array binding signal (z-score within array); higher = stronger binding
Details in all cases: glycan notation: IUPAC condensed, linker removed
[1] = biological target: Neu5Ac(a2-6)Gal(b1-4)GlcNAc6S
How it was run: (§1)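 Negative Z-scores can be read as non-binding. The Z-score is calculated within each array and then averaged across arrays of one protein sequence at different concentrations or buffers and across linkers. Arrays, 3228 in all, were curated from the Consortium for Functional Glycomics database and kept only where the protein sequence was available.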

Neu5Ac(a2-6)GalNAc = biological target: Neu5Ac(a2-6)GalNAc
How it was run: as §1

[2] = biological target: Neu5Ac(a2-6)GalNAc(b1-4)GlcNAc
How it was run: as §1

[3] = biological target: Neu5Ac(a2-6)GalNAc(b1-4)GlcNAc6S
How it was run: as §1

[4] = biological target: Neu5Ac(a2-6)GlcNAc(b1-4)GlcNAc
How it was run: as §1

[5] = biological target: Neu5Ac(a2-6)GlcNAc(b1-4)GlcNAc(b1-4)GlcNAc
How it was run: as §1

Neu5Ac(a2-8)Neu5Ac = biological target: Neu5Ac(a2-8)Neu5Ac
How it was run: as §1

[6] = biological target: Neu5Ac(a2-8)Neu5Ac(a2-3)Gal(b1-3)GalNAc(b1-4)[Neu5Ac(a2-3)]Gal(b1-4)Glc
How it was run: as §1

[7] = biological target: Neu5Ac(a2-8)Neu5Ac(a2-3)Gal(b1-3)GalNAc(b1-4)[Neu5Ac(a2-8)Neu5Ac(a2-3)]Gal(b1-4)Glc
How it was run: as §1

[8] = biological target: Neu5Ac(a2-8)Neu5Ac(a2-3)Gal(b1-4)Glc
How it was run: as §1

[9] = biological target: Neu5Ac(a2-8)Neu5Ac(a2-3)Gal(b1-4)GlcNAc
How it was run: as §1

[10] = biological target: Neu5Ac(a2-8)Neu5Ac(a2-3)[Gal(b1-3)GalNAc(b1-4)]Gal(b1-4)Glc
How it was run: as §1

[11] = biological target: Neu5Ac(a2-8)Neu5Ac(a2-3)[GalNAc(b1-4)]Gal(b1-4)Glc
How it was run: as §1

[12] = biological target: Neu5Ac(a2-8)Neu5Ac(a2-8)Neu5Ac
How it was run: as §1

[13] = biological target: Neu5Ac(a2-8)Neu5Ac(a2-8)Neu5Ac(a2-3)Gal(b1-4)Glc
How it was run: as §1

[14] = biological target: Neu5Ac(a2-8)Neu5Ac(a2-8)Neu5Ac(a2-3)[Gal(b1-3)GalNAc(b1-4)]Gal(b1-4)Glc
How it was run: as §1

[15] = biological target: Neu5Ac(a2-8)Neu5Ac(a2-8)Neu5Ac(a2-3)[GalNAc(b1-4)]Gal(b1-4)Glc
How it was run: as §1

[16] = biological target: Neu5Ac(a2-8)Neu5Ac(a2-8)Neu5Ac(a2-8)Neu5Ac(a2-3)[GalNAc(b1-4)]Gal(b1-4)Glc
How it was run: as §1

[17] = biological target: Neu5Ac(a2-8)Neu5Gc(a2-3)Gal(b1-4)GlcNAc
How it was run: as §1

[18] = biological target: Neu5Ac(b2-6)Gal(b1-4)GlcNAc
How it was run: as §1

Neu5Ac(b2-6)GalNAc = biological target: Neu5Ac(b2-6)GalNAc
How it was run: as §1

[19] = biological target: Neu5Ac9Ac(a2-3)Gal(b1-3)GlcNAc
How it was run: as §1

[20] = biological target: Neu5Ac9Ac(a2-3)Gal(b1-4)GlcNAc
How it was run: as §1

[21] = biological target: Neu5Ac9Ac(a2-6)Gal(b1-4)GlcNAc
How it was run: as §1

[22] = biological target: Neu5Gc(a2-3)Gal(b1-3)GlcNAc
How it was run: as §1

[23] = biological target: Neu5Gc(a2-3)Gal(b1-3)[Fuc(a1-4)]GlcNAc
How it was run: as §1

Neu5Gc(a2-3)Gal(b1-4)Glc = biological target: Neu5Gc(a2-3)Gal(b1-4)Glc
How it was run: as §1

[24] = biological target: Neu5Gc(a2-3)Gal(b1-4)GlcNAc
How it was run: as §1

[25] = biological target: Neu5Gc(a2-3)Gal(b1-4)GlcNAc(b1-3)Gal(b1-4)GlcNAc(b1-2)Man(a1-3)[Neu5Gc(a2-3)Gal(b1-4)GlcNAc(b1-3)Gal(b1-4)GlcNAc(b1-2)Man(a1-6)]Man(b1-4)GlcNAc(b1-4)GlcNAc
How it was run: as §1

[26] = biological target: Neu5Gc(a2-3)Gal(b1-4)[Fuc(a1-3)]GlcNAc
How it was run: as §1

[27] = biological target: Neu5Gc(a2-6)Gal(b1-4)GlcNAc
How it was run: as §1

Neu5Gc(a2-6)GalNAc = biological target: Neu5Gc(a2-6)GalNAc
How it was run: as §1

[28] = biological target: Neu5Gc(a2-8)Neu5Ac(a2-3)Gal(b1-4)GlcNAc
How it was run: as §1

[29] = biological target: Neu5Gc(a2-8)Neu5Gc(a2-3)Gal(b1-4)GlcNAc
How it was run: as §1

[30] = biological target: Neu5Gc(a2-8)Neu5Gc(a2-3)Gal(b1-4)GlcNAc(b1-3)Gal(b1-4)GlcNAc
How it was run: as §1

[31] = biological target: Neu5Gc(a2-8)Neu5Gc(a2-6)Gal(b1-4)GlcNAc
How it was run: as §1

[32] = biological target: Neu5Gc(b2-6)Gal(b1-4)GlcNAc
How it was run: as §1

B1: Siglec-7-SA-PE-180 (Homo sapiens), Q9Y286 (protein)
chain: MLLLLLLPLLWGRERVEGQKSNRKDYSLTMQSSVTVQEGMCVHVRCSFSYPVDSQTDSDPVHGYWFRAGNDISWKAPVATNNPAWAVQEETRDRFHLLGDPQTKNCTLSIRDARMSDAGRYFFRMEKGNIKWNYKYDQLSVNVTALTHRPNILIPGTLESGCFQNLTCSVPWACEQGTPPMISWMGTSVSPLHPSTTRSSVLTLIPQPQHHGTSLTCQVTLPGAGVTTNRTIQLNVSYPPQNLTVTVFQGEGTASTALGNSSSLSVLEGQSLRLVCAVDSNPPARLSWTWRSLTLYPSQPSNPLVLELQVHLGDEGEFTCRAQNSLGSQHVSLNLSLQQEYTGKMRPVSGVLLGAVGGAGATALVFLSFCVIFIVVRSCRKKSARPAADVGDIGMKDANTIRGSASQGNLTESWADDNPRHHGLAAHSSGEEREIQYAPLSFHKGEPQDLSGQEATNNEYSEIKIPK
With B1 the “glycan array binding signal (z-score)” value [1] was 0.616, the “glycan array binding signal (z-score)” value (Neu5Ac(a2-6)GalNAc) was -0.249 and the “glycan array binding signal (z-score)” value [2] was -0.408. The “glycan array binding signal (z-score)” value [3] was 0.866, the “glycan array binding signal (z-score)” value [4] was 0.062 and the “glycan array binding signal (z-score)” value [5] was 0.256. For the same binder, the “glycan array binding signal (z-score)” value (Neu5Ac(a2-8)Neu5Ac) was 2.11, the “glycan array binding signal (z-score)” value [6] was 0.073 and the “glycan array binding signal (z-score)” value [7] was -0.144. The “glycan array binding signal (z-score)” value [8] was -0.23, the “glycan array binding signal (z-score)” value [9] was -0.281 and the “glycan array binding signal (z-score)” value [10] was -0.067. The “glycan array binding signal (z-score)” value [11] was -0.166, the “glycan array binding signal (z-score)” value [12] was -0.114 and the “glycan array binding signal (z-score)” value [13] was 0.277. For the same binder, the “glycan array binding signal (z-score)” value [14] was -0.076, the “glycan array binding signal (z-score)” value [15] was -0.3 and the “glycan array binding signal (z-score)” value [16] was 0.404. The “glycan array binding signal (z-score)” value [17] was -0.201, the “glycan array binding signal (z-score)” value [18] was -0.215 and the “glycan array binding signal (z-score)” value (Neu5Ac(b2-6)GalNAc) was 0.102. For the same binder, the “glycan array binding signal (z-score)” value [19] was -0.351, the “glycan array binding signal (z-score)” value [20] was -0.346 and the “glycan array binding signal (z-score)” value [21] was -0.116. The “glycan array binding signal (z-score)” value [22] was -0.155, the “glycan array binding signal (z-score)” value [23] was -0.221 and the “glycan array binding signal (z-score)” value (Neu5Gc(a2-3)Gal(b1-4)Glc) was 0.401. For the same binder, the “glycan array binding signal (z-score)” value [24] was 0.198, the “glycan array binding signal (z-score)” value [25] was 0.589 and the “glycan array binding signal (z-score)” value [26] was 0.13. The “glycan array binding signal (z-score)” value [27] was 0.747, the “glycan array binding signal (z-score)” value (Neu5Gc(a2-6)GalNAc) was 2.26 and the “glycan array binding signal (z-score)” value [28] was -0.398. For the same binder, the “glycan array binding signal (z-score)” value [29] was -0.256, the “glycan array binding signal (z-score)” value [30] was 0.081 and the “glycan array binding signal (z-score)” value [31] was -0.092. For the same binder, the “glycan array binding signal (z-score)” value [32] was -0.05.
